The whole screen tested about 43,000 compounds, of which about 200 (0.47%) were called active. Inconclusive results (about 12%) are left out. Calls follow the shape of the dose curve; as a rule, active = well fitted cell-killing curve with a large enough effect; inconclusive = small, poorly fitted or top-dose-only effect, or effect the other way; inactive = flat fitted curve, though single readings scatter. Some of the results follow.
Assay: Cell viability qHTS assay in S16 Pmp22-F2sN cells; also: nearly all actives have a fitted effect of over 65% in size
Settings: S16 Pmp22-F2sN Schwann cells (luciferase reporters placed in the Pmp22 gene) viability, CellTiter-Glo, 24 h; series mostly up to 57.5 µM; activity change, negative = cytotoxicity: at the top concentration
Method in brief: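 Seed 500-1,000 S16 Pmp22-F2sN cells per well in phenol-red-free DMEM with 10% heat-inactivated FBS; pin-add 23 nL compound; incubate 24 h at 37C; add CellTiter-Glo, wait 15 min protected from light; read luminescence.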
% is scaled to controls: 0 for no effect and ±100 for the full control effect; potency is read from the fitted curve at half-maximal effect.

| Structure (SMILES) | activity change, negative = cytotoxicity | Potency |
| --- | --- | --- |
| Cn1nc(-c2ccccc2F)c2cc(C(=O)N3CCN(c4ccc(F)cc4)CC3)sc21 | inactive: -22.7% |  |
| CCOC(=O)c1[nH]c(C)c(CCC(=O)NCc2ccccc2C)c1C | inactive: 3.85% |  |
| CCn1cc(S(=O)(=O)c2ccc(C)cc2)c(=O)c2cc(F)c(N3CCCCCC3)cc21 | inactive: -1.63% |  |
| CCCN1CCN(CCCNC(=O)Cn2c(-c3cccs3)cc3ccccc32)CC1 | inactive: 5.97% |  |
| Cc1ccc(NC(=O)CSc2ncnc3c2sc2ccccc23)cc1C | inactive: 10.5% |  |
| Cc1nn(C(=O)c2cccc(F)c2)c(C)c1S(=O)(=O)N1CCCCCC1 | inactive: -1.48% |  |
| CCC(C)NC(=O)Cn1c(=O)n(Cc2ccc(C(=O)NCc3ccccc3OC)cc2)c(=O)c2ccccc21 (stereo not given) | inactive: 4.94% |  |
| Cn1c(=O)n(C/C=C/c2ccccc2)c(=O)c2c1nc1n2CCN1c1ccc(Cl)cc1 | inactive: 4.31% |  |
| COc1ccc(Cn2c(SCc3ccc(C(=O)NCCc4ccccc4)cc3)nc3cccnc32)cc1 | inactive: 1.08% |  |
| CCN(CC)c1nn2c(=O)c(C(=O)NCc3cccc(C)c3)cnc2s1 | inactive: -0.194% |  |
| COc1ccc(-c2noc(CN3CCN(c4cccc(Cl)c4)CC3)n2)cc1 | inactive: 1.32% |  |
| COc1ccc(OC)c(Nc2ncnc3c2cnn3-c2ccc(C)cc2)c1 | inactive: 1.13% |  |
| Cc1cc(C)cc(NS(=O)(=O)c2ccc3[nH]cc(C(=O)N4CCCCCC4)c(=O)c3c2)c1 | inactive: -3% |  |
| Cc1ccc(C)c(NC(=O)CSc2nc(=O)n(Cc3ccccn3)c3c2CCC3)c1 | inactive: -1.9% |  |
| Cc1cccc(N2CCN(S(=O)(=O)c3ccc(F)c(C(=O)Nc4ccc(C(C)C)cc4)c3)CC2)c1C | inactive: -4.42% |  |
| COc1cc(CN2CCc3nc(N4CCN(c5ccccc5F)CC4)ncc3C2)ccc1OC(C)C | inactive: -4.14% |  |
| CCCCN(CC)C(=O)Cn1c(=O)n(-c2ccc(OCC)cc2)c(=O)c2c3c(sc21)CCCC3 | inactive: 2.05% |  |
| Cc1c(C(=O)Nc2ccc(Br)cc2F)sc2ncnc(N(C)C3CCCCC3)c12 | inactive: 26.4% |  |
| Cc1nc2cccnc2n1-c1cccc(C(=O)NCCc2ccc(Cl)cc2)c1 | inactive: -17.9% |  |
| N#Cc1ccccc1NC(=O)C(=O)NCC(c1ccc2c(c1)OCO2)N1CCN(c2ccccc2)CC1 (stereo not given) | inactive: 3.94% |  |
| CC(C)(C)c1ccc(NC(=O)CSc2nnc3scc(-c4ccccc4)n23)cc1 | inactive: 14.2% |  |
| CSc1ncc(C(=O)Nc2ccccc2C(=O)c2ccccc2)c(C)n1 | inactive: 15.4% |  |
| CCOC(=O)c1cnc2c(OC)cccc2c1Nc1cccc(O)c1 | inactive: 15.7% |  |
| CCOC(=O)c1c(C)[nH]c(C)c1S(=O)(=O)NCC(=O)N(C)c1ccc(C)c(C)c1 | inactive: 6.56% |  |

| Structure (SMILES) | activity change, negative = cytotoxicity | Potency |
| --- | --- | --- |
| Cn1cnc(S(=O)(=O)N2CCC(C(=O)N3CCN(c4cccc(C(F)(F)F)c4)CC3)CC2)c1 | inactive: 7.37% |  |
| O=C(Nc1c(C(=O)c2ccccc2)oc2ccccc12)c1cc(=O)c2ccccc2o1 | inactive: 7.02% |  |
| Cc1cc(C)c2c(C)c(C(=O)N3CCC(c4nc5ccccc5s4)CC3)oc2c1 | inactive: 7.57% |  |
| CCn1c2ccc(F)cc2c2nnc(SCCN3CCCCC3)nc21 | inactive: 2.87% |  |
| Cc1cccc(CNC(=O)C2CCN(c3nc4ccc(Cl)cc4[nH]3)CC2)c1 | inactive: -12.3% |  |
| Cc1ccc(C(=O)Nc2ccccc2F)cc1S(=O)(=O)N1CCOCC1 | inactive: 19% |  |
| Cc1ccc(NC(=O)CCC(=O)N2CCOc3ccccc32)c(Cl)c1 | inactive: 1.55% |  |
| Cc1nc2c3ccccc3nc(NNC(=O)CCC(=O)N3CCN(c4ccccc4F)CC3)n2n1 | inactive: 4.48% |  |
| COc1ccc(C2Nc3ccccc3-c3nnc(SC)nc3O2)cc1C (stereo not given) | inactive: 1.88% |  |
| COc1cc(C2c3c(oc4ccc(C)cc4c3=O)C(=O)N2Cc2ccc(F)cc2)ccc1O (stereo not given) | inactive: -0.113% |  |
| COc1ccc(C(=O)Nc2nnc(S(=O)(=O)N3CCOCC3)s2)cc1 | inactive: -19.5% |  |
| Cc1nn(C(C)C(=O)NCc2cccc(F)c2)c(=O)c2c1sc1ccccc12 (stereo not given) | inactive: 2.94% |  |
| O=C(CSc1nnc(-c2ccccc2)o1)N1CCCc2ccccc21 | inactive: -4.68% |  |
| COc1ccc(C)cc1NC(=O)C(NS(=O)(=O)c1cccc2nsnc12)c1ccccc1 (stereo not given) | inactive: 1.75% |  |
| CCOC(=O)N1CCc2c(sc3c2c(=O)n(-c2ccc(Cl)cc2)c(=O)n3CC(=O)Nc2ccccc2)C1 |  | active: 12.6 µM |
| CCN(CC)C(=O)Cn1cc(SCC(=O)Nc2ccc(C)cc2)c2ccccc21 | inactive: -2.69% |  |
| CCOCN(C(=O)CSc1nc2ccccc2[nH]1)c1c(C)cccc1CC | inactive: 5.26% |  |
| O=C(c1ccccc1)c1ccc2nc(Nc3ccccc3Cl)c3nncn3c2c1 | inactive: 6.04% |  |
| CCCCN(CC)C(=O)Cn1nc(C)c2c(C)n(-c3ccccc3)nc2c1=O | inactive: 0.0071% |  |
| CCOC(=O)c1c(C)oc2nc(C)nc(NCc3cccc(OC)c3)c12 | inactive: -1.85% |  |
| COc1ccccc1NC(=O)CCNS(=O)(=O)c1ccc2c(c1)CCCC(=O)N2 | inactive: 13.8% |  |
| CCOC(=O)c1cc(OC(=O)c2ccc(OC)c(OC)c2)n(-c2ccccc2)n1 | inactive: 13.7% |  |
| COc1ccccc1CNC(=O)CCCn1c(=O)c2ccccc2n(Cc2ccccc2F)c1=O | inactive: 2.56% |  |
| Cc1ccc(N2CC(C(=O)Nc3ccc(Cl)cc3Cl)CC2=O)cc1 (stereo not given) | inactive: -1.38% |  |

| Structure (SMILES) | activity change, negative = cytotoxicity | Potency |
| --- | --- | --- |
| Cc1sc2c(c1C)c(=O)n(-c1cccc(C(F)(F)F)c1)c(=O)n2Cc1ccc(F)cc1 | inactive: -24.3% |  |
| COC(=O)c1ccc(NC(=O)CCc2c(C)nc3c(c2C)c(=O)n(C)c(=O)n3C)cc1 | inactive: -3.38% |  |
| COc1ccccc1Cc1nc2ccccc2nc1SCC(=O)Nc1cccc(Cl)c1C | inactive: -5.07% |  |
| Cc1ccc(-c2nc3ccc(Cl)cn3c2Nc2ccccc2C)s1 | inactive: -28.6% |  |
| CC(C)c1cnc2c(c1SCC(=O)NCc1ccccc1)c(=O)n(C)c(=O)n2C | inactive: 16.6% |  |
| CN(Cc1ccccc1)C(=O)CSc1nc2ccccc2n1Cc1ccccc1F | inactive: 0.934% |  |
| Cc1ccccc1NC(=O)CSc1nc(=O)n(CCN2CCOCC2)c2c1CCC2 | inactive: 24% |  |
| COc1ccc(CNC(=O)c2cnc3cc(C)ccn3c2=O)cc1 | inactive: 5.98% |  |
| COc1cc(NC(=O)CSC2=Nc3ccccc3N=C(c3ccc(F)cc3)C2)cc(OC)c1 | inactive: 20.4% |  |
| Cc1ccc(NC(=O)c2cnc(SCC(=O)Nc3cc(C)on3)n(C)c2=O)cc1 | inactive: -4.55% |  |
| Cc1ccc(CNC(=O)Cn2cc(S(=O)(=O)Cc3ccccc3F)c3ccccc32)cc1 | inactive: -20.3% |  |
| COc1ccccc1N1CCN(C(=O)CCNS(=O)(=O)c2ccc3c(c2)CCN3C(=O)C2CC2)CC1 | inactive: 4.87% |  |
| CCOC(=O)c1ccc(NC(=O)CC2C(=O)N(c3cccc(OC)c3)C(=O)N2Cc2ccc(OC)cc2)cc1 (stereo not given) | inactive: -2.52% |  |
| C=CCc1ccccc1OCC(O)CN1CCN(c2ccccc2)CC1 (stereo not given) | inactive: 14.9% |  |
| COc1ccccc1C(=O)Nc1ccc2c(c1)nc(CN1CCCCC1)n2C | inactive: 16.2% |  |
| CCn1c(=O)n(CC)c2cc(N3CCCCC3)c(NC(=O)Nc3ccccc3C(F)(F)F)cc21 | inactive: -14.1% |  |
| Cc1cc(C)n2nc(SCC(=O)Nc3cccc(C(F)(F)F)c3)nc2n1 | inactive: -8.36% |  |
| COc1ccc(Cl)cc1NC(=O)c1c(NCc2sccc2C)sc2c1CCCC2 | inactive: -0.378% |  |
| Clc1ccccc1CNc1nc2ccccc2c2nc(-c3cccnc3)nn12 | inactive: 25.8% |  |
| COCCCNC(=O)c1cc(-c2cccnc2)nc2ccc(S(=O)(=O)N3CCC(C)CC3)cc12 | inactive: 4.4% |  |
| CN1C(=O)C2(c3ccccc31)N(c1cccc(F)c1)C(=O)CS2(=O)=O (stereo not given) | inactive: -0.453% |  |
| O=C(Cn1nnc(-c2ccc(Cl)cc2)n1)NCc1ccc(F)cc1 | inactive: 5.99% |  |
| COc1ccc(OC)c(CNS(=O)(=O)c2c(C(=O)N3CCCCCC3)c(C)n(C)c2C)c1 | inactive: 3.12% |  |
| O=S(=O)(c1ccc(Br)cc1)c1nc(-c2cccs2)oc1SCc1ccccc1F | inactive: -26.5% |  |

| Structure (SMILES) | activity change, negative = cytotoxicity | Potency |
| --- | --- | --- |
| COc1ccc(NC(=O)C2CCCN(S(=O)(=O)c3ccc4c(c3)CCCC(=O)N4)C2)c(OC)c1 (stereo not given) | inactive: 7.89% |  |
| Cc1nn(S(=O)(=O)c2ccc(F)cc2)c(C)c1S(=O)(=O)N1CCC(C)CC1 | inactive: 9.6% |  |
| COc1cccc2cc(C(=O)NCCc3c(C)[nH]c4ccc(Br)cc34)c(=O)oc12 | inactive: -0.442% |  |
| Cc1ccc(-n2ncc(C(=O)Nc3ccc4c(c3)OCO4)c2C2CCN(C(=O)OC(C)(C)C)CC2)cc1 | inactive: -13% |  |
| Cc1ccnc(NS(=O)(=O)c2cc(-c3cc(C)no3)ccc2C)c1 | inactive: -0.897% |  |
| CCc1ccc(N(CC)C(=O)Cn2c(=O)oc3ccccc32)cc1 | inactive: 3.57% |  |
| CC(C)(C)NC(=O)c1cnn2c(C(F)F)cc(-c3ccccc3)nc12 | inactive: 6.05% |  |
| Cc1ccc(CCNC(=O)C2CCN(c3nnc(-n4cccc4CNc4ccc(C)cc4)s3)CC2)cc1 | inactive: -11.9% |  |
| CCN(C(=O)Cn1c(=O)oc2cc(Cl)ccc21)c1cccc(C(F)(F)F)c1 | inactive: 0.403% |  |
| COc1ccc(/C=C/C(=O)Nc2nc3n(n2)C(c2ccccc2)C=C(c2ccccc2)N3)cc1 (stereo not given) | inactive: 0.574% |  |
| Cc1ccc(-c2cnc(NCc3ccc(C(F)(F)F)cc3)n2C)cc1 | inactive: 6.55% |  |
| CCOC(=O)c1cc2c(=O)n3ccccc3nc2n(CC(C)C)c1=NC(=O)c1cc2ccccc2o1 | inactive: -2.94% |  |
| Cc1ccc(S(=O)(=O)c2cn(Cc3ccc(F)cc3)c3cc(F)c(F)cc3c2=O)cc1 | inactive: 4.1% |  |
| CCOCCn1ccc2c(OCC(=O)Nc3ccc(OC(F)(F)F)cc3)cccc2c1=O | inactive: -3.76% |  |
| O=C(CN1C(=O)CC(c2ccccc2)Sc2ccccc21)Nc1cccc(Cl)c1 (stereo not given) | inactive: 22.7% |  |
| CC(=O)c1cccc(NC(=O)CCS(=O)(=O)c2ccc(Br)s2)c1 | inactive: -2.77% |  |
| Cc1ccc(Cl)cc1Nc1sc(C(=O)c2ccccc2)c(N)c1S(=O)(=O)c1ccccc1 | inactive: -0.338% |  |
| Cc1ccc(Nc2cc(C(=O)NC3CCCC3)c3ccccc3n2)c(C)c1 | inactive: 21.3% |  |
| COc1ccc(NC(=O)CSC2=Nc3ccccc3C3=NC(Cc4ccccc4)C(=O)N23)cc1Cl (stereo not given) | inactive: -24.3% |  |
| CN(Cc1ccccc1)C(=O)Cn1ncc2c3ccccc3n(Cc3cccc(Cl)c3)c2c1=O | inactive: 3.59% |  |
| COc1cc(CCC(=O)NCc2ccc3c(c2)CCN3C(=O)c2cccc(C)c2)cc(OC)c1OC | inactive: 0.0243% |  |
| CCc1cnc2c(c1SCC(=O)NCc1ccccc1)c(=O)n(C)c(=O)n2C | inactive: 8.49% |  |
| Cc1cc(C)c2oc(-c3cccc(NC(=O)c4cc5ccccc5o4)c3)nc2c1 | inactive: -2.39% |  |
